# Article PMC4336329 (PLoS ONE, 2015)
# Among all 310,000 compounds or so, about 2,200 (0.71%) showed an effect of 50% or more. The effect is printed as a negative number. Some of the results follow.
# Target: human ether-à-go-go-related gene (hERG) potassium channel (human, UniProt Q12809)
# Test: primary screen, population patch clamp on CHO cells stably expressing hERG
# Sequence of human ether-à-go-go-related gene (hERG) potassium channel (Q12809 whole entry, looked up): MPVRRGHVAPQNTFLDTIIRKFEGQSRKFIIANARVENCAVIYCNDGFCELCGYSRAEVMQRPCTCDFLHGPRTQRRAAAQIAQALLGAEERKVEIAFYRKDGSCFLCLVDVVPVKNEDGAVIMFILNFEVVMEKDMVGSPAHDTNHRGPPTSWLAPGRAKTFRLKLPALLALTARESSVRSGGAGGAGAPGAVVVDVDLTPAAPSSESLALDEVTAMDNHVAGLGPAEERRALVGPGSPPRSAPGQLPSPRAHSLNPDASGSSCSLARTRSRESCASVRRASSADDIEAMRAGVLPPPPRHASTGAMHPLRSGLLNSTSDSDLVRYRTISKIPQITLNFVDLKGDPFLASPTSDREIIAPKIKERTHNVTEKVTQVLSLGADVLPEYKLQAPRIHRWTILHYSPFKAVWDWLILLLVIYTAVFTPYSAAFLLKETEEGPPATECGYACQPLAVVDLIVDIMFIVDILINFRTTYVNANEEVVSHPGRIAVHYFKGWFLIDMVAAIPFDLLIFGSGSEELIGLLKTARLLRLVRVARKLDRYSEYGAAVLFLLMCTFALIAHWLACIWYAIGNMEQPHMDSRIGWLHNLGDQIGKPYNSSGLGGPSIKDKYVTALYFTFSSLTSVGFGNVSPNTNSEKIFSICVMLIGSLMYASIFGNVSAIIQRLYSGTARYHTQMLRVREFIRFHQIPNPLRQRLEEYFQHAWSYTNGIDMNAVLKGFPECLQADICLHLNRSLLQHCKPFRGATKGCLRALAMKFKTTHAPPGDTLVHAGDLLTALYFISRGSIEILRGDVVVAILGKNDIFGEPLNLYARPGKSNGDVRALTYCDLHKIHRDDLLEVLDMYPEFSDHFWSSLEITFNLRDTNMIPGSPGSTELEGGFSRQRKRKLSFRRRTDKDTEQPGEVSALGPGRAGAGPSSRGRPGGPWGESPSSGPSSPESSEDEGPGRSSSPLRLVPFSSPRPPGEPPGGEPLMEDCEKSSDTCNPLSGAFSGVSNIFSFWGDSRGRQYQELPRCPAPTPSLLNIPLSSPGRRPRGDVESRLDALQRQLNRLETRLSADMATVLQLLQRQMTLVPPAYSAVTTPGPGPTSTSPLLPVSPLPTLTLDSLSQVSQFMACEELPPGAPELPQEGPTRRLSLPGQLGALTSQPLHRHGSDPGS
row,Compound,"hERG current change (%, negative = inhibition) at 1uM [%]"
1,CCc1ccc(NC(=O)CN(c2ccc(OC)cc2)S(=O)(=O)c2c(C)[nH]c(=O)[nH]c2=O)cc1,14.7
2,CN(C)CCNC(=O)/C(=C/c1ccc(-c2ccc(Cl)cc2Cl)o1)NC(=O)c1ccccc1,-7.71
3,CCN1CCCC1CNc1ncnc2c1[nH]c1ccc(F)cc12 (centres unmarked),-81.4
4,COc1ccc(C2SCC(=O)Nc3c2c(C)nn3-c2ccccc2)cc1 (centres unmarked),17.2
5,O=C(NC1CCN(S(=O)(=O)c2ccc(F)cc2)CC1)C1CCCCC1,10.9
6,COC(=O)c1ccc(CN(c2ccccn2)S(=O)(=O)c2ccccc2)cc1,20.5
7,CN1CCN(c2ccccc2NC(=O)c2ccccc2F)CC1,-46.4
8,CN(C)C(=O)/C(=C\c1ccncc1)NC(=O)c1ccccc1,3.87
9,O=C(Nc1nccs1)OCc1ccccc1,11.3
10,Cc1ccc2nc(NC(=O)CN3CCN(c4ccccn4)CC3)sc2c1,7.71
11,COc1cccc(OCc2cc(C(=O)NCCc3cccc(C)n3)no2)c1,8.21
12,CCCC(C)C1(CC)C(=O)NC(=O)N=C1N (centres unmarked),-23.6
13,Cc1c(=O)n(OCc2ccccc2F)c2ccccc2[n+]1[O-],14.2
14,COc1cccc(-c2cc(C(F)(F)F)nc(-n3cc(C)cn3)n2)c1,3.67
15,NC1=NC(=O)C(Cc2cc(Cl)ccc2Cl)S1 (centres unmarked),15.5
16,C/C(=N\NS(=O)(=O)c1cccc([N+](=O)[O-])c1)c1cc2ccccc2o1,10.4
17,COc1ccc(Cl)cc1NC(=S)NCCc1ccc(F)cc1,9.98
18,COc1ccc(C)cc1NC(=O)C1CCN(C(=O)c2ccco2)CC1,10
19,CN(C)c1ccc(C(C(=O)NCC2CCCO2)N(Cc2ccccc2)C(=O)c2snc(C(N)=O)c2N)cc1 (centres unmarked),13.1
20,CCOc1ccc(C(=O)NCC(c2cccs2)N(C)C)cc1OCC (centres unmarked),-11.5
21,O=C(c1cc(COc2ccc(F)cc2Cl)on1)N1CCc2ccccc2C1,12.2
22,O=C(Nc1ccc(N2CCN(C(=O)C3CC3)CC2)cc1)c1cccs1,6.98
23,O=S(=O)(Nc1ncn[nH]1)c1ccc(Cl)cc1,10.2

row,Compound,"hERG current change (%, negative = inhibition) at 1uM [%]"
1,O=C(Cn1c(=O)n(CC2CCCO2)c(=O)c2ccccc21)c1ccccc1 (centres unmarked),3.9
2,Cc1nn(Cc2ccccc2)c(Cl)c1C(=O)OC(C)C(=O)Nc1ccc(F)cc1Cl (centres unmarked),0.218
3,Cc1cccc(N2C(=S)N=C(Nc3c(C)cccc3C)C23CCOC(C)(C)C3)c1 (centres unmarked),21.1
4,Nc1ccc(S(=O)(=O)NNC(=O)C(=O)NNc2ccccc2)cc1,10.5
5,O=C(Nc1c[nH]c(=O)[nH]c1=O)c1cccc(F)c1,4.53
6,COC(=O)CCCC1=CC2=CC(=O)C(C)(OC(=O)c3cccs3)C(=O)C2=CN1CC1CC1 (centres unmarked),12.4
7,O=C(c1ccccc1F)N1CCCC(C(=O)N2CCc3ccccc3C2)C1 (centres unmarked),12.3
8,CC(=C/c1ccccc1)/C=N/NC(=O)c1nnn(-c2nonc2N)c1CN1CCC(C)CC1,15.6
9,Cc1ccc2cc(C(=O)O)c(C)nc2c1,10.8
10,Br.CN(C)CCNc1cc(-c2ccncc2)nc2ccccc12,5.15
11,CCOC(=O)CSc1nnc(NCC(=O)OC)c(=O)[nH]1,15.9
12,Nc1nn(-c2ccccc2)c(N)c1N=Nc1ccccc1,-0.274
13,CCN1CCN(C(=O)Nc2cccc(C(F)(F)F)c2)CC1,16.1
14,COc1ccc(C(=O)NN2CCCCC2)cc1OC,0.647
15,Cc1cccc(C)c1NC(=O)N1C2CCC1CC(O)(c1cccnc1)C2 (centres unmarked),6.61
16,Cc1nc(C(=O)NCc2ccccc2)sc1C1(C)CC(c2cccnc2)=NO1 (centres unmarked),3.9
17,Cc1ccc(C)c(NC(=O)COC(=O)CCNC(=O)c2ccco2)c1,12
18,COc1ccc(NC(=O)COC(=O)CC2CC3CCC2C3)c([N+](=O)[O-])c1 (centres unmarked),11.5
19,CC(=O)Nc1ccc(NC(=O)C(C)OC(=O)CC2CCCC2)cc1 (centres unmarked),5.35
20,CCOC(=O)COc1cccc2c(=O)n(CC(=O)N3CCCCC3)ccc12,-3.64
21,O=C(COC(=O)c1cccnc1Nc1cccc(C(F)(F)F)c1)NCCN1C(=O)CSC1=O,-18.5
22,N#CC1=C(N)Nc2nc3ccccc3n2C1c1ccc(F)cc1 (centres unmarked),22.3
23,COc1ccc(C/C(C)=N/NC(=O)c2cccnc2)cc1,-12.2

row,Compound,"hERG current change (%, negative = inhibition) at 1uM [%]"
1,CCc1ccc(NC(=O)C2CCN(S(=O)(=O)c3ccc4[nH]c(=O)ccc4c3)CC2)cc1,9.37
2,CCCCC1(Br)C(=O)N(c2ccccc2)N(c2ccccc2)C1=O,-0.0461
3,O=C(Oc1ccc2c(c1)OCO2)C12CC3CC(CC(C3)C1)C2,12.8
4,O=C1CSc2ccc(C(=O)N3CCN(c4ccccn4)CC3)cc2N1,-10.6
5,Cc1nc(Nc2ccc(S(N)(=O)=O)cc2)sc1C(=O)Nc1ccccc1,5.96
6,COc1ccc2cc(C(=O)N3CCc4ccccc43)[nH]c2c1,13.5
7,CCn1cc(CN2CCC(Oc3ccc(C(=O)N4CCCCC4)cc3)CC2)cn1,10.4
8,O=C(CS(=O)(=O)Cc1ccccc1)NCc1ccco1,10.6
9,COc1ccc(C2CC(C(F)(F)F)n3nc(C(=O)O)c(Br)c3N2)cc1 (centres unmarked),13.3
10,COc1ccc2oc(C(=O)Nc3nc(-c4ccccn4)cs3)c(C)c2c1,6.57
11,Cc1cc2nc(C3CCN(CC4COc5ccccc5O4)CC3)[nH]c2cc1C (centres unmarked),-65.6
12,COc1ccc2cc(C3NC(=O)c4ccccc4N3)c(Cl)nc2c1 (centres unmarked),11.4
13,C=CC[n+]1c(C)csc1Nc1ccc(C(=O)O)cc1.[Br-],10.1
14,O=C(CCC1CCCCC1)Nc1c2c(nn1-c1ccc(F)cc1)CS(=O)C2 (centres unmarked),-2.29
15,CCOc1ccc(NC(=O)c2cccnc2SC)cc1,22
16,Cc1nnsc1C(=O)N/N=C/c1ccc(OC(F)(F)F)cc1,4.29
17,CCSc1nnc(NC(=O)C2CCCCC2C(=O)O)s1 (centres unmarked),8.19
18,O=S1(=O)N=C(SCCO)c2ccccc21,4.44
19,COc1cccc(CNC(=O)c2cccc(NC(=O)C3=C(C)OCCS3)c2)c1,10
20,COCCN1C(=O)c2[nH]nc(-c3ccccc3O)c2C1c1ccc(OC)cc1 (centres unmarked),0.822
21,Cc1cccc(NC(=O)CN2CCOCC2)c1C,12.2
22,O=C(O)c1ccc(COCC(F)(F)C(F)F)o1,17.9
23,COc1ccc(C2C(C(C)=O)=C(O)C(=O)N2c2nccs2)cc1OC (centres unmarked),-7.25

row,Compound,"hERG current change (%, negative = inhibition) at 1uM [%]"
1,CCCCNC(=S)N=Nc1c(O)n(Cc2ccccc2)c2ccccc12,0.995
2,C=CCSc1nnc2n(CCc3ccccc3)c(=O)c3c4c(sc3n12)COC(C)(C)C4,10.6
3,COc1ccc2c(c1)c(C(=O)N/N=C/c1ccc(Cl)cc1)c(C)n2C,-10.2
4,CN(C)S(=O)(=O)c1cccc(C(=O)Nc2ccc(N3CCOCC3)cc2)c1.Cl,12.8
5,COc1ccccc1NC(=O)CSc1nc(SC)ns1,11.9
6,CC(=O)N1CCOc2ccc(S(=O)(=O)N3CCC(C(=O)Nc4cc(C)cc(C)c4)CC3)cc21,15.6
7,O=C(OCc1cc(Cl)ccc1OC(F)F)c1cncc(Br)c1,9.64
8,COc1cc2c(cc1NC(=O)C(C)OC(=O)c1ccc(S(=O)(=O)Nc3ccccc3Cl)cc1)oc1ccccc12 (centres unmarked),10.5
9,CCOC(=O)c1sc(N/N=C/c2ccc(N(C)C)cc2)nc1C,-0.996
10,CCCc1cc(=O)oc2cc(OCC(=O)NCCCN3CCOCC3)ccc12,6.59
11,CC(=O)Nc1ccc(N(C(=O)c2ccco2)C(C(=O)NC2CCCC2)c2ccc(N3CCOCC3)cc2)cc1 (centres unmarked),14.3
12,O=C(Cn1c(=O)sc2ccccc21)Nc1ccc(S(=O)(=O)N2CCCC2)cc1,9.34
13,CCOC(=O)C1C(=O)CC(=O)CC1CC(C)SCC (centres unmarked),13.7
14,COc1cc(Cl)c(C)cc1NC(=O)CSc1ccccc1,7.59
15,CCCCn1c(SCC(=O)NC2CCCC2)nc2ccccc2c1=O,4.94
16,Cl.O=[N+]([O-])c1cc(S(=O)(=O)NCCCN2CCOCC2)ccc1Cl,-2.31
17,O=C(NC(=S)N1CCN(c2ccc(Cl)cc2[N+](=O)[O-])CC1)c1cccs1,-0.239
18,Cc1ccc(N2C(=O)[C@@H]3[C@H](C2=O)[C@H]2C=CC=NN2[C@@H]3C(=O)Nc2ccccc2)cc1,13.3
19,COc1ccc(NC(=O)CSc2nc3ccccc3nc2N2CCCC2)cc1,15.4
20,CN1CCN(C(=S)Nc2cccc(Cl)c2)CC1,7.2
